Results on ten sequences are retold here after paper PMC4081100.

The list shows a part of the results, in another mix than the full data. For some assays here: At the low end of the ranking, values are background and their order means little. Some of the results follow. For some assays here: The source does not settle which construct or isoform was used.

What all share (assay): universal protein binding microarray (PBM)
What all share (settings): transcription factors of Arabidopsis thaliana; high values mean tight binding; most listed sequences are background and not binding sites; double strand, one strand shown

One test addresses T1, GST-ANAC092(1-176) (UniProt Q9FKA0).
T1 sequence: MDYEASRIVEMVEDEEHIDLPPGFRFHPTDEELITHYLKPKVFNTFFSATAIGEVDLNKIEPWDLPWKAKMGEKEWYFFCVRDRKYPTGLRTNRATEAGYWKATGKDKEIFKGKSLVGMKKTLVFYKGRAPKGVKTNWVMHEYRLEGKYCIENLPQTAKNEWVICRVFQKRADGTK

The next test concerns the target GST-NTL6(1-168) (UniProt Q9SCK6).
UniProt Q9SCK6, sequence (Q9SCK6 1-168): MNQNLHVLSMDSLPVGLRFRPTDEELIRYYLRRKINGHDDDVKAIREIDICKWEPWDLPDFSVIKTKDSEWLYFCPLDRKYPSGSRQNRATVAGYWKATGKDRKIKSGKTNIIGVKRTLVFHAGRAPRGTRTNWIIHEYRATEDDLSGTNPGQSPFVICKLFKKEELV
Another test concerns the target T2, GST-ANAC019 NAC domain (UniProt Q9C932).
T2 sequence: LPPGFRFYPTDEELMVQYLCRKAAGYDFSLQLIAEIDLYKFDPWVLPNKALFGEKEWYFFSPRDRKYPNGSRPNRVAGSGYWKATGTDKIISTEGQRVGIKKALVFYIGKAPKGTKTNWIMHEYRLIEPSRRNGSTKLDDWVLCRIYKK

The target of a further test is T3, GST-ANAC055(1-171) (UniProt Q9LDY8).
T3 sequence: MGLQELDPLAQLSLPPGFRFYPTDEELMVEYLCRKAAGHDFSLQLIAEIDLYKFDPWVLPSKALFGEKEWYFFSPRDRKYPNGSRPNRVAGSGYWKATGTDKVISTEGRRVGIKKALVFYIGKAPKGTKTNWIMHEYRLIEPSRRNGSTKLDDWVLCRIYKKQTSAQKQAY

A further test concerns the target T4, GST-ATAF1 NAC domain (UniProt Q39013).
T4 sequence: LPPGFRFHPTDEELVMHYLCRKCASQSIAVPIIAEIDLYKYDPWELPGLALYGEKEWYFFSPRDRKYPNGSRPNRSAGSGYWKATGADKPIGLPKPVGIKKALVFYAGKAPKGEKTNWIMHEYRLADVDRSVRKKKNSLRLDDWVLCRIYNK

In test [1] the target is T5, GST-ANAC092(1-285) full length (UniProt Q9FKA0).
T5 sequence: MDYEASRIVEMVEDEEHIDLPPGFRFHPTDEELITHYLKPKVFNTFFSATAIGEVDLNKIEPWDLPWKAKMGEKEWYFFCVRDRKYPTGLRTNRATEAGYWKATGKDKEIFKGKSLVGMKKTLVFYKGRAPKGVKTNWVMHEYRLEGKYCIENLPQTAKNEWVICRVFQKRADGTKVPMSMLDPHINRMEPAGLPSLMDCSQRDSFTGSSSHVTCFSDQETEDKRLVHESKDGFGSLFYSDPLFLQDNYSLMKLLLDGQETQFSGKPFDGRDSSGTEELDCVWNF

For the next test, the target named is T6, GST-NST2(1-184) (UniProt Q9M274).
T6 sequence: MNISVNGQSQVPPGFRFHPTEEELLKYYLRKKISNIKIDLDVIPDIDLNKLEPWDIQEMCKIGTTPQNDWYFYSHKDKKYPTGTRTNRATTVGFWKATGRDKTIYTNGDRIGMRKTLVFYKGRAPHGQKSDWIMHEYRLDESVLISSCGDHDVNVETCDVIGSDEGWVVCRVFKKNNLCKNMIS

In the next test the target is T7, GST-NTL8 NAC domain (UniProt Q9XIN7).
T7 sequence: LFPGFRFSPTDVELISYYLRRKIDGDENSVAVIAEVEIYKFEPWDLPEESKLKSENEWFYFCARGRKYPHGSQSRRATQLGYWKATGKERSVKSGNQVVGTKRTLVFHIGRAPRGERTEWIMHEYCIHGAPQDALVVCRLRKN

The next test concerns the target T8, GST-SND1(1-203) (UniProt Q9LPI7).
T8 sequence: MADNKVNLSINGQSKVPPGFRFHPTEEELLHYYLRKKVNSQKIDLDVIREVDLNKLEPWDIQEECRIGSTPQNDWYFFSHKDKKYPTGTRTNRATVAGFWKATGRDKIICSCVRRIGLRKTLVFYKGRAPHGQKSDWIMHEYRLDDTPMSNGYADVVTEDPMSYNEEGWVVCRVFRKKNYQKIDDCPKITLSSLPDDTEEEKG

Another test addresses T9, GST-VND3 NAC domain (UniProt Q9FH59).
T9 sequence: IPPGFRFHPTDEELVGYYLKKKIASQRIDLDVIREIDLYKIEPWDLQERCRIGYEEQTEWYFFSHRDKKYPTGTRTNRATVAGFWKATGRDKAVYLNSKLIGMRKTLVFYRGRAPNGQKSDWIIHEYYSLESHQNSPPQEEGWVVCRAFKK

In the next test the target is T10, GST-VND7 NAC domain (UniProt Q9C8W9).
T10 sequence: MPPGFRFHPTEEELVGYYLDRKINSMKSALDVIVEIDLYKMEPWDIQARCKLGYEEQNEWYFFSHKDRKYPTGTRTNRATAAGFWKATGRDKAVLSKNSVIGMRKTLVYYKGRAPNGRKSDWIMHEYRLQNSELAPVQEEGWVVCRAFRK

In test [2] the target is T11, GST-VOZ2 (Arabidopsis thaliana) (UniProt Q9SLB9).
T11 sequence: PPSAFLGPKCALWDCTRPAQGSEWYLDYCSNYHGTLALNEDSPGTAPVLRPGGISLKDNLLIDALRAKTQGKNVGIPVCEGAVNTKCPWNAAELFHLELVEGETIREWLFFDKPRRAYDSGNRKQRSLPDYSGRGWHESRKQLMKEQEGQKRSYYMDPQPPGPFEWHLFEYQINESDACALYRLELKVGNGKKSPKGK

The target in a further test is T12, GST-NAP(1-166) (UniProt O49255).
T12 sequence: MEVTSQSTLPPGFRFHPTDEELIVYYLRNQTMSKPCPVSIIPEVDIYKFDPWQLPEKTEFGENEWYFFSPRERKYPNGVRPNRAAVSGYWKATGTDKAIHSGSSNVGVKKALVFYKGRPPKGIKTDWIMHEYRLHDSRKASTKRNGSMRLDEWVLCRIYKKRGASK

For the sequence ACGACCAA, the binding signal with GST-ANAC092(1-176) was -0.0341 E-score; with GST-NTL6(1-168) it was 0.0375 E-score; with GST-ANAC019 NAC domain, 0.00507 E-score; in the test with GST-ANAC055(1-171), -0.0971 E-score; in the test with GST-ATAF1 NAC domain it was -0.0378 E-score; in [1], -0.00456 E-score. Also, the binding signal with GST-NST2(1-184) was -0.0127 E-score; with GST-NTL8 NAC domain, -0.0207 E-score; with GST-SND1(1-203) it was 0.00585 E-score; with GST-VND3 NAC domain it was -0.102 E-score; with GST-VND7 NAC domain, -0.0434 E-score; in test [2], 0.0926 E-score.
Consider GACGGTCA, for which the binding signal in the test with GST-ANAC092(1-176) was -0.126 E-score; in the test with GST-NTL6(1-168), -0.106 E-score; in the test with GST-ANAC019 NAC domain it was -0.0527 E-score; in the test with GST-ANAC055(1-171) it was -0.155 E-score; in the test with GST-ATAF1 NAC domain it was -0.15 E-score; in test [1] it was -0.0381 E-score. For the same sequence, the binding signal in the test with GST-NAP(1-166) is -0.0433 E-score; with GST-NST2(1-184), -0.135 E-score; with GST-NTL8 NAC domain it was -0.0485 E-score; with GST-SND1(1-203), -0.115 E-score; with GST-VND3 NAC domain, -0.144 E-score; with GST-VND7 NAC domain, -0.0787 E-score. In test [2], the binding signal is -0.153 E-score.
Turning to CGTTGACC, the binding signal with GST-ANAC092(1-176) is 0.00874 E-score; with GST-NTL6(1-168), -0.112 E-score; with GST-ANAC019 NAC domain, 0.0797 E-score; in the test with GST-ANAC055(1-171), 0.0286 E-score; in the test with GST-ATAF1 NAC domain, -0.0667 E-score; in test [1], 0.0428 E-score. Also, the binding signal in the test with GST-NST2(1-184) was -0.081 E-score; in the test with GST-SND1(1-203), 0.0105 E-score; with GST-VND3 NAC domain it was -0.0758 E-score; in the test with GST-VND7 NAC domain, 0.0428 E-score; in test [2], 0.0277 E-score.
In the case of GAAAGTCA, the binding signal with GST-ANAC092(1-176) was -0.03 E-score; with GST-NTL6(1-168), 0.0172 E-score; with GST-ANAC019 NAC domain, 0.042 E-score; with GST-ANAC055(1-171), 0.0337 E-score; in [1], 0.0781 E-score; with GST-NAP(1-166), -0.117 E-score. Besides, the binding signal in the test with GST-NST2(1-184) is -0.0272 E-score; with GST-NTL8 NAC domain, 0.0471 E-score; with GST-SND1(1-203), -0.11 E-score; in the test with GST-VND3 NAC domain, 0.0237 E-score; with GST-VND7 NAC domain, 0.0313 E-score; in [2], -0.107 E-score.
For the sequence AGTCAGCG, the binding signal was -0.0458 E-score with GST-ANAC092(1-176); -0.0588 E-score with GST-NTL6(1-168); -0.109 E-score with GST-ANAC019 NAC domain; -0.144 E-score with GST-ANAC055(1-171); -0.153 E-score with GST-ATAF1 NAC domain; -0.0858 E-score in [1]. The binding signal was -0.136 E-score in the test with GST-NAP(1-166); -0.07 E-score in the test with GST-NST2(1-184); -0.0154 E-score with GST-NTL8 NAC domain; -0.00353 E-score with GST-SND1(1-203); -0.183 E-score with GST-VND3 NAC domain; -0.0803 E-score in the test with GST-VND7 NAC domain. In addition, the binding signal in test [2] was -0.0392 E-score.
Turning to GATTTGAC, the binding signal with GST-ANAC092(1-176) was -0.159 E-score; with GST-NTL6(1-168) it was -0.068 E-score; with GST-ANAC019 NAC domain it was -0.0568 E-score; in the test with GST-ANAC055(1-171) it was 0.00328 E-score; in [1], -0.152 E-score; in the test with GST-NAP(1-166), 0.0457 E-score. In addition, the binding signal is -0.122 E-score with GST-NST2(1-184); -0.0952 E-score with GST-NTL8 NAC domain; -0.127 E-score with GST-SND1(1-203); -0.016 E-score with GST-VND3 NAC domain; 0.0205 E-score in the test with GST-VND7 NAC domain; -0.00725 E-score in test [2].
Take ATGGGTCA: the binding signal in the test with GST-ANAC092(1-176) was -0.189 E-score; with GST-NTL6(1-168) it was -0.0203 E-score; with GST-ANAC019 NAC domain it was -0.172 E-score; with GST-ANAC055(1-171) it was -0.112 E-score; with GST-ATAF1 NAC domain it was -0.108 E-score; in test [1], -0.085 E-score. Also, the binding signal was -0.0465 E-score with GST-NST2(1-184); -0.154 E-score with GST-NTL8 NAC domain; -0.178 E-score with GST-SND1(1-203); -0.159 E-score with GST-VND3 NAC domain; -0.198 E-score in the test with GST-VND7 NAC domain; 0.0407 E-score in [2].
As for CAAGTCAA, the binding signal with GST-ANAC092(1-176) is 0.0929 E-score; with GST-NTL6(1-168), -0.0534 E-score; with GST-ANAC019 NAC domain, 0.0429 E-score; with GST-ANAC055(1-171), -0.0108 E-score; with GST-ATAF1 NAC domain, 0.0933 E-score; with GST-NAP(1-166) it was -0.0516 E-score. For the same sequence, the binding signal was 0.0486 E-score with GST-NST2(1-184); -0.034 E-score with GST-NTL8 NAC domain; 0.0488 E-score in the test with GST-SND1(1-203); 0.0301 E-score with GST-VND3 NAC domain; 0.0166 E-score with GST-VND7 NAC domain; 0.0228 E-score in test [2].
As for AAGTCAGT, the binding signal was -0.0128 E-score in the test with GST-ANAC092(1-176); 0.00135 E-score with GST-NTL6(1-168); 0.0478 E-score in the test with GST-ANAC019 NAC domain; -0.0895 E-score with GST-ANAC055(1-171); -0.0318 E-score in the test with GST-ATAF1 NAC domain; -0.132 E-score in test [1]. The binding signal is -0.127 E-score with GST-NAP(1-166); -0.0633 E-score with GST-NST2(1-184); -0.0659 E-score with GST-NTL8 NAC domain; 0.0862 E-score with GST-SND1(1-203); -0.012 E-score with GST-VND3 NAC domain; -0.0963 E-score with GST-VND7 NAC domain. In [2], this sequence displayed a binding signal of -0.0638 E-score.
Regarding AAGTCGTC, the binding signal in the test with GST-ANAC092(1-176) is 0.00419 E-score; with GST-NTL6(1-168), -0.0295 E-score; with GST-ANAC019 NAC domain it was -0.00353 E-score; with GST-ANAC055(1-171) it was 0.0254 E-score; in the test with GST-ATAF1 NAC domain, 0.0243 E-score; in test [1], -0.0176 E-score. For the same sequence, the binding signal with GST-NST2(1-184) was -0.0124 E-score; in the test with GST-NTL8 NAC domain it was -0.0498 E-score; with GST-SND1(1-203), -0.085 E-score; in the test with GST-VND3 NAC domain, -0.0385 E-score; with GST-VND7 NAC domain it was -0.0216 E-score; in test [2] it was -0.142 E-score.
